Experimental data taken from the supplement of paper PMC9542798.

Columns and labels:
Assay in all cases: minimum inhibitory concentration
[1] = compound: O=C(N[C@H](CO)[C@H](O)c1ccc([N+](=O)[O-])cc1)C(Cl)Cl [Chloramphenicol]
Description: (§1)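 Broth microdilution MIC per ISO 10932 on precoated VetMIC Lact-1 plates (tylosin, vancomycin and ampicillin plates prepared manually) against lactic acid bacteria and bifidobacteria isolates. Plates were read visually after 48 h anaerobic incubation (bifidobacteria 72 h; enterococci and staphylococci 24 h aerobic) at species-specific temperatures of 30 or 37 °C. Values prefixed with < or > are outside the tested dilution range.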

[2] = compound: CNC(C)C1CCC(N)C(OC2C(N)CC(N)C(OC3OCC(C)(O)C(NC)C3O)C2O)O1 [Gentamicin]
Description: as §1

[3] = compound: NC[C@@H]1O[C@H](O[C@H]2[C@@H](O)[C@H](O[C@@H]3[C@@H](O)[C@H](N)C[C@H](N)[C@H]3O[C@H]3O[C@H](CN)[C@@H](O)[C@H](O)[C@H]3N)O[C@@H]2CO)[C@H](N)[C@@H](O)[C@@H]1O [Neomycin]
Description: as §1

[4] = compound: CN[C@@H]1[C@H](O[C@H]2[C@H](O[C@H]3[C@H](O)[C@@H](O)[C@H](N=C(N)N)[C@@H](O)[C@@H]3N=C(N)N)O[C@@H](C)[C@]2(O)C=O)O[C@@H](CO)[C@H](O)[C@H]1O [Streptomycin]
Description: as §1

[5] = compound: CC[C@H]1OC(=O)[C@H](C)[C@@H](O[C@H]2C[C@@](C)(OC)[C@@H](O)[C@H](C)O2)[C@H](C)[C@@H](O[C@@H]2O[C@H](C)C[C@H](N(C)C)[C@H]2O)[C@](C)(O)C[C@@H](C)C(=O)[C@H](C)[C@@H](O)[C@]1(C)O [Erythromycin]
Description: as §1

[6] = compound: CC1(C)S[C@@H]2[C@H](NC(=O)[C@H](N)c3ccccc3)C(=O)N2[C@H]1C(=O)O [Ampicillin]
Description: as §1

[7] = compound: NC[C@H]1O[C@H](O[C@H]2[C@H](O)[C@@H](O[C@H]3O[C@H](CO)[C@@H](O)[C@H](N)[C@H]3O)[C@H](N)C[C@@H]2N)[C@H](O)[C@@H](O)[C@@H]1O [Kanamycin]
Description: as §1

[8] = compound: CCC[C@@H]1C[C@@H](C(=O)N[C@@H]([C@H]2O[C@H](SC)[C@H](O)[C@@H](O)[C@H]2O)[C@H](C)Cl)N(C)C1 [Clindamycin]
Description: as §1

[9] = compound: CN(C)[C@@H]1C(O)=C(C(N)=O)C(=O)[C@@]2(O)C(O)=C3C(=O)c4c(O)cccc4[C@@](C)(O)[C@H]3C[C@@H]12 [Tetracycline]
Description: as §1
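Further: isolates derived from commercial starter, protective, probiotic or feed-additive cultures, from fermented products, from human gut mucosa or feces, and from human milk or colostrum.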

Test System | minimum inhibitory concentration [1] [µg/mL] | minimum inhibitory concentration [2] [µg/mL] | minimum inhibitory concentration [3] [µg/mL] | minimum inhibitory concentration [4] [µg/mL] | minimum inhibitory concentration [5] [µg/mL] | minimum inhibitory concentration [6] [µg/mL] | minimum inhibitory concentration [7] [µg/mL] | minimum inhibitory concentration [8] [µg/mL] | minimum inhibitory concentration [9] [µg/mL]
Lacticaseibacillus casei IM573 (strain group: probiotic strains) | 8 | 8 | 16 | 32 | 1 | 2 | 128 | 1 | 2
Lacticaseibacillus casei IM574 (strain group: probiotic strains) | 8 | 4 | 8 | 32 | 0.5 | 1 | 128 | 0.5 | 1
Lacticaseibacillus casei IM806 (strain group: probiotic strains) | 8 | 1 | 2 | 16 | 0.25 | 1 | 32 | 4 | 2
Lacticaseibacillus casei IM831 (strain group: probiotic strains) | 8 | 8 | 16 | 64 | 0.25 | 2 | 64 | 0.12 | 1
Lacticaseibacillus casei IM1098 (strain group: starter cultures) | 4 | 2 | 4 | 16 | 0.12 | 4 | 32 | 0.12 | 1
Lacticaseibacillus casei IM1103 (strain group: non-starter strains) | 8 | 16 | 32 | 32 | 0.25 | 2 | 128 | 0.25 | 1
Lacticaseibacillus casei IM1106 (strain group: non-starter strains) | 4 | 2 | 4 | 16 | 0.25 | 2 | 64 | 0.25 | 1
Lacticaseibacillus casei IM1107 (strain group: non-starter strains) | 4 | 2 | 4 | 16 | 0.12 | 1 | 32 | 0.06 | 1
Lacticaseibacillus casei IM1120 (strain group: non-starter strains) | 4 | 4 | 8 | 16 | 0.25 | 2 | 64 | 0.5 | 1
Lacticaseibacillus casei IM1125 (strain group: non-starter strains) | 4 | 4 | 4 | 16 | 0.12 | 2 | 32 | 0.12 | 1
Lacticaseibacillus casei IM1148 (strain group: non-starter strains) | 4 | 4 | 4 | 16 | 0.12 | 4 | 64 | 0.12 | 1
Lacticaseibacillus paracasei IM579 (strain group: probiotic strains) | 4 | 16 | 32 | 16 | 0.25 | 1 | 128 | 0.25 | 2
Lacticaseibacillus paracasei IM657 (strain group: human intestinal mucosa or faeces) | 8 | 2 | 8 | 8 | 0.12 | 1 | 32 | 0.12 | 1
Lacticaseibacillus paracasei IM692 (strain group: human intestinal mucosa or faeces) | 4 | 2 | 4 | 16 | 0.25 | 1 | 32 | 0.12 | 2
Lacticaseibacillus paracasei IM693 (strain group: human intestinal mucosa or faeces) | 8 | 2 | 4 | 16 | 0.25 | 1 | 16 | 0.12 | 2
Lacticaseibacillus paracasei IM694 (strain group: human intestinal mucosa or faeces) | 4 | 4 | 8 | 32 | 0.12 | 1 | 32 | 1 | 2
Lacticaseibacillus paracasei IM695 (strain group: human intestinal mucosa or faeces) | 4 | 1 | 2 | 16 | 0.12 | 1 | 16 | 0.12 | 2
Lacticaseibacillus paracasei IM696 (strain group: human intestinal mucosa or faeces) | 4 | 4 | 8 | 16 | 0.12 | 1 | 32 | 0.12 | 1
